Results from US20230312724A1 (KADMON, published 2023).
Read-outs that look alike come from different tables or passages of the source.

T1: human B7-H4-his (human, UniProt Q7Z7D3 25-259)
T1 construct: also called hB7-H4-his; hB7-H4 his; not shown: his tag
T1 sequence: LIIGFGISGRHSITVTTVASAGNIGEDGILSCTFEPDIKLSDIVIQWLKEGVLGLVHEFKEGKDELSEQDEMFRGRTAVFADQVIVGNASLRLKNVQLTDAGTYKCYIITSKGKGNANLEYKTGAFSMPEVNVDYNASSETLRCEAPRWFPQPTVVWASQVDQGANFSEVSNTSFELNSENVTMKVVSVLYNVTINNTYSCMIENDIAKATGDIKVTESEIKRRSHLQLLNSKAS

T2: human B7-H4 expressed on cells (human, UniProt Q7Z7D3 25-282)
T2 construct: Transfected CHO cells or tumor cell lines that carry hB7-H4; also called cellular hB7-H4
T2 sequence: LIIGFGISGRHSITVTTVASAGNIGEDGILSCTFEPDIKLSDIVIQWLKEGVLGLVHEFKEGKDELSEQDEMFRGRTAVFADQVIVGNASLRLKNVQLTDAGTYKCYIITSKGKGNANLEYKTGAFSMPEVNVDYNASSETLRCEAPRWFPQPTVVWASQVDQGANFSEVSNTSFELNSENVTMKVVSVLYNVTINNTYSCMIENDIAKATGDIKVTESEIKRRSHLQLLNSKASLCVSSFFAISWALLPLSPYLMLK

T3: mouse B7-H4-his (mouse, UniProt Q7TSP5 25-257)
T3 construct: also called mB7-H4-his; mB7-H4-His; not shown: his tag
T3 sequence: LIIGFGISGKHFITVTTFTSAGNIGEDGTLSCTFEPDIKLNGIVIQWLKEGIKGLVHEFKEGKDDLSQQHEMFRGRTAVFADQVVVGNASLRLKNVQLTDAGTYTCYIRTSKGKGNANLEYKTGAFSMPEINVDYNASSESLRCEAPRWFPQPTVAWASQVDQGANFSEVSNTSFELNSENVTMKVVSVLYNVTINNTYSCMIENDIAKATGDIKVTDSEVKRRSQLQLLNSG


Key:
human B7-H4-his [1] = molecular target: T1, human B7-H4-his; experiment: SPR (Biacore)
Method: (§1) Surface plasmon resonance experiments were performed using a Biacore T200 instrument equipped with CM5 sensor chips. The system was equilibrated in running buffer HBS-EP pH 7.4. The ligands were immobilized using amine-coupling chemistry. The surfaces of flow cells one through four were activated for 5 min using an amine coupling kit at a flow rate of […]. The ligands (human B7-H4-Fc, human B7-H4-hism and mouse B7-H4-Fc; at a concentration of 5 μg/ml in 10 mM sodium acetate, pH 5.0) were immobilized at a density of 50-100 RU on flow cell 2, 3, 4 respectively. Flow cell 1 was left blank to serve as a reference surface. All flow cell surfaces were blocked with a 5 min injection of 1 M ethanolamine, pH 8.0. To collect kinetic binding data, the respective analyte (diluted in 1×HBS-EP buffer, pH 7.4) was injected over the four flow cells at concentrations of 100 nM to 0.1 nM at a flow rate of […] and at a temperature of 25° C. The protein complex was allowed to associate and dissociate for 180 seconds and 1000 or 1200 seconds, respectively. The surfaces were regenerated with a 30 second injection of 1.5 M NaCl/0.05 M NaOH. The data were fit to a simple 1:1 interaction model using the Langmuir fit option available within the Biaevaluaton software

human B7-H4-Fc [2] = molecular target: T4, human B7-H4-Fc (human); experiment: SPR (Biacore)
T4 construct: also called hB7-H4-Fc; hB7-H4 Fc
Method: as §1

[3] = molecular target: T2, human B7-H4 expressed on cells; experiment: flow cytometry, MX-1 cells
Method: (§2) Cells were harvested, washed once, and then re-suspended to the concentration of 1×10⁶ cells/ml in ice cold FACS Buffer. 25 μl of cell suspension was added to each well of a 96-well round-bottom microliter plate. Serially diluted antibodies or fusion proteins were added to each well and incubated for 1 hour at 4° C. Cells were washed three times by centrifugation at 1500 rpm for 5 minutes, and then stained with secondary antibody (1:200 dilution) for 30 min at 4° C. in the dark. Cells were washed once, re-suspended in 100 μl PBS buffer and then analyzed using Guava Flow Cytometry EasyCyte system.

mouse B7-H4-his [4] = molecular target: T3, mouse B7-H4-his; experiment: ELISA on coated mB7-H4-his
Method: (§3) About 1-2 μg/ml of human or mouse B7-H4-Fc (or his-tagged) was immobilized on ELISA plates (Immuno 2HB, Thermo scientific, cat #3455) at 4° C. overnight. After blocking the plates with 3% PBS+milk, serial diluted antibodies were added to the blocked plates and incubated at RT for 1-1.5 h. After washing the plates with PBS-T (0.05%), horse radish peroxidase (HRP)-conjugated antibody targeting the hFab was added to the plate. Signals were developed by adding 3,3′,5,5′-Tetramethylbenzidine (TMB (followed 1N of H₂SO₄ to stop the reaction. The OD at 450 nm was read by ELISA plate reader (Infinite M1000 from TECAN). GraphPad from Prism was used to plot OD450 vs. antibody concentration curve and to calculate the EC50 values.

[5] = molecular target: T5, IgV domain of human B7-H4-Fc (human); experiment: ELISA on coated IgV domain of hB7-H4
T5 construct: also called hB7-H4 IgV domain
Method: as §3

[6] = molecular target: T6, IgV domain of mouse B7-H4-Fc (mouse; human); experiment: ELISA on coated IgV domain of mB7-H4
T6 construct: also called mB7-H4 IgV domain
Method: as §3

human B7-H4-Fc [7] = molecular target: T4, human B7-H4-Fc; experiment: ELISA on coated hB7-H4-Fc
Method: as §3

human B7-H4-Fc [8] = molecular target: T4, human B7-H4-Fc; experiment: ELISA on coated human B7-H4Fc
Method: as §3

mouse B7-H4-Fc [9] = molecular target: T7, mouse B7-H4-Fc (mouse; human); experiment: ELISA on coated mB7-H4-Fc
T7 construct: also called mB7-H4-Fc; mB7-H4-hFc
Method: as §3

[10] = molecular target: T2, human B7-H4 expressed on cells; experiment: flow cytometry, MDA-MB-468 cells
Method: as §2

human B7-H4-his [11] = molecular target: T1, human B7-H4-his; experiment: ELISA on coated hB7-H4-his
Method: as §3

mouse B7-H4-Fc [12] = molecular target: T7, mouse B7-H4-Fc; experiment: SPR (Biacore)
Method: as §1

mouse B7-H4-his [13] = molecular target: T3, mouse B7-H4-his; experiment: ELISA on coated mouse B7-H4his
Method: as §3

mouse B7-H4-his [14] = molecular target: T3, mouse B7-H4-his; experiment: ELISA on coated mB7-H4-his; remark: listed apart in the source
Method: as §3

mouse B7-H4-Fc [15] = molecular target: T7, mouse B7-H4-Fc; experiment: ELISA on coated mouse B7-H4Fc
Method: as §3

[16] = molecular target: T2, human B7-H4 expressed on cells; experiment: flow cytometry on SK-BR-3 cells
Method: as §2

human B7-H4-his [17] = molecular target: T1, human B7-H4-his; experiment: ELISA on coated hB7-H4-his; remark: listed apart in the source
Method: as §3

[18] = molecular target: T5, IgV domain of human B7-H4-Fc; experiment: ELISA on coated IgV domain of hB7-H4; remark: listed apart in the source
[19] = molecular target: T2, human B7-H4 expressed on cells; experiment: flow cytometry on SK-BR-3 cells; remark: listed apart in the source
Method: as §2

[20] = molecular target: T6, IgV domain of mouse B7-H4-Fc; experiment: ELISA on coated IgV domain of mB7-H4; remark: listed apart in the source
T6 sequence (chain, as listed by the source): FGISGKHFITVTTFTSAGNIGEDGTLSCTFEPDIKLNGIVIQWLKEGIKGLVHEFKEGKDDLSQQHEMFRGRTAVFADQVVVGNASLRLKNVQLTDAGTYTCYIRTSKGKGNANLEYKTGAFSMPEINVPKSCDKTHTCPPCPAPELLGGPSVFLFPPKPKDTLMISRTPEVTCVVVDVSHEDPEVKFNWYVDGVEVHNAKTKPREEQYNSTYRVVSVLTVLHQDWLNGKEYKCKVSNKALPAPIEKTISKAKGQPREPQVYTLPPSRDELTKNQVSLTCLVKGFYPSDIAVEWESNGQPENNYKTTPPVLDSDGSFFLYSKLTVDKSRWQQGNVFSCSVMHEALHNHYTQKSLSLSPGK

T4 sequence (chain, as listed by the source): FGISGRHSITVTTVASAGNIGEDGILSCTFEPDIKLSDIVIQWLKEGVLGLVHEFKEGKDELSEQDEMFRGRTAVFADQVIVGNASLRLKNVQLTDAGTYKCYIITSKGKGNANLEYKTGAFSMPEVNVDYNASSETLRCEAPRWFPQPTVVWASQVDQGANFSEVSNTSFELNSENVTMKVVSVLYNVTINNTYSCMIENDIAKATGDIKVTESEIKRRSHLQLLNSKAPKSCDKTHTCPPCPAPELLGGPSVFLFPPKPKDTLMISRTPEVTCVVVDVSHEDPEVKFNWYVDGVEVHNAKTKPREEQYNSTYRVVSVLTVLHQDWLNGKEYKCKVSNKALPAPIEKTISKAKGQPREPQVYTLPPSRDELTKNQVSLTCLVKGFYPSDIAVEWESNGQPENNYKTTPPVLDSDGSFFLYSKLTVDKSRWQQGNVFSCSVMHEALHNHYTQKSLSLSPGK
T5 sequence (chain, as listed by the source): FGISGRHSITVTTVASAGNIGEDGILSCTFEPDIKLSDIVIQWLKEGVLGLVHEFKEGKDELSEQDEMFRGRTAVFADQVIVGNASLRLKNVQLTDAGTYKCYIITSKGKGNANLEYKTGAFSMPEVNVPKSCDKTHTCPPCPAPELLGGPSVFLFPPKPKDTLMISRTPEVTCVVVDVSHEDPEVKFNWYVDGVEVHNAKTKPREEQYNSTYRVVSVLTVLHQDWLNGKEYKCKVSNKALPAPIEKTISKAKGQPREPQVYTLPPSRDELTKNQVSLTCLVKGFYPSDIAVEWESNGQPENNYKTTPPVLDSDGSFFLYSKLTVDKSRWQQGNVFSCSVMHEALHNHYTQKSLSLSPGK
T7 sequence (chain, as listed by the source): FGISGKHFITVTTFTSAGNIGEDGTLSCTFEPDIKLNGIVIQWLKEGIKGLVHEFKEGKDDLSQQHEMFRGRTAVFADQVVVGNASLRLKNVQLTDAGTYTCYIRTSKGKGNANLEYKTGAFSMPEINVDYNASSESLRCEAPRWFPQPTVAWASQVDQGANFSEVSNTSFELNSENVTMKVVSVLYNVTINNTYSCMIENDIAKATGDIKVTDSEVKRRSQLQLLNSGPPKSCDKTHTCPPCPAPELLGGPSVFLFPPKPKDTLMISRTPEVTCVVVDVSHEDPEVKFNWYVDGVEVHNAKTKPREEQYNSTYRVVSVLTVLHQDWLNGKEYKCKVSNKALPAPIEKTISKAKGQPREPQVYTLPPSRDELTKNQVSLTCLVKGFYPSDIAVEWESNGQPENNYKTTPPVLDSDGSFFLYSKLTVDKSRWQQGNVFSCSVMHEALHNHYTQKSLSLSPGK

Kd (human B7-H4-his [1]) | Kd (human B7-H4-Fc [2]) | EC50 [3] | EC50 (read off the curve) (human B7-H4-Fc [7]) | EC50 (read off the curve) (human B7-H4-Fc [8]) | EC50 [10] | EC50 (read off the curve) (human B7-H4-his [11]) | Kd (mouse B7-H4-Fc [12]) | EC50 (read off the curve) (mouse B7-H4-his [14]) | EC50 (read off the curve) (human B7-H4-his [17]) | EC50 (read off the curve) [18] | EC50 (read off the curve) [20] | Binder | also measured
0.0259 nM | 0.101 nM | 0.162 nM | ~0.09 nM | ~0.2 nM | 0.398 nM | ~0.1 nM | – | – | – | – | – | 3F2/50A10-IL15 (other, also called 50A10/IL115) heavy 1: QVQLVQSGAEVKKPGASVKVSCKASGYTFTAQYMYWVRQAPGQGLEWMGRINPTSGNTVYAQKLQGRVTMTRDTSTSTVYMELSSLRSEDTAVYYCARGINWFDPWGQGTLVTVSS[letters of human IgG1 constant region with changes not shown] heavy 2: QVQLVQSGAEVKKPGASVKVSCKASGYTFTAQYMYWVRQAPGQGLEWMGRINPTSGNTVYAQKLQGRVTMTRDTSTSTVYMELSSLRSEDTAVYYCARGINWFDPWGQGTLVTVSSASTKGPSVFPLAPSSKSTSGGTAALGCLVKDYFPEPVTVSWNSGALTSGVHTFPAVLQSSGLYSLSSVVTVPSSSLGTQTYICNVNHKPSNTKVDKKV[letters of human IgG1 Fc with changes not shown]CPPPMSVEHADIWVKSYSLYSRERYICNSGFKRKAGTSSLTECVLNKATNVAHWTTPSLKCIRDPALVHQRPAPPSGGSGGGGSGGGSGGGGSLQ[letters of about 120 residues not shown] light: DIQMTQSPSSLSASVGDRVTITCQASQDISNYINWYQQKPGKAPKLLIYAASRLQSGVPSRFSGSGSGTDFTLTISSLQPEDFATYYCQQSYRSPFTFGQGTKLEIKRTVAAPSVFIFPPSDEQLKSGTASVVCLLNNFYPREAKVQWKVDNALQSGNSQESVTEQDSKDSTYSLSSTLTLSKADYEKHKVYACEVTHQGLSSPVTKSFNRGEC | binding result (mouse B7-H4-his [4]): no binding (tested: 10 nM); EC50 (read off the curve) [5]: ~0.1 nM; binding result [6]: no binding (tested: 10 nM); binding result (mouse B7-H4-Fc [9]): no binding (tested: 10 nM)
0.0454 nM | 0.219 nM | 24.8 nM | – | ~0.2 nM | 29.6 nM | – | 0.107 nM | ~0.2 nM | ~0.2 nM | ~0.2 nM | ~0.1 nM | 39A11/57G8-IL15 (other, Antibody-cytokine fusion: heterodimeric IgG1 (knobs-into-holes), HC2 carries C-terminal IL-15Ralpha sushi domain-linker-IL-15 N65S) heavy 1: EVQLLESGGGLVQPGGSLRLSCAASGFTFSSYGMHWVRQAPGKGLEWVASISSSSGYIYYADSVKGRFTISRDNSKNTLYLQMNSLRAEDTAVYYCARASSGMDVWGQGTTVTVSS[letters of human IgG1 constant region with changes not shown] heavy 2: EVQLLESGGGLVQPGGSLRLSCAASGFTFSSYGMHWVRQAPGKGLEWVASISSSSGYIYYADSVKGRFTISRDNSKNTLYLQMNSLRAEDTAVYYCARASSGMDVWGQGTTVTVSSASTKGPSVFPLAPSSKSTSGGTAALGCLVKDYFPEPVTVSWNSGALTSGVHTFPAVLQSSGLYSLSSVVTVPSSSLGTQTYICNVNHKPSNTKVDKKV[letters of human IgG1 Fc with changes not shown]CPPPMSVEHADIWVKSYSLYSRERYICNSGFKRKAGTSSLTECVLNKATNVAHWTTPSLKCIRDPALVHQRPAPPSGGSGGGGSGGGSGGGGSLQ[letters of about 120 residues not shown] light: DIQMTQSPSSLSASVGDRVTITCRASQSIRSYLNWYQQKPGKAPKLLIYYASSLQSGVPSRFSGSGSGTDFTLTISSLQPEDFATYYCQQYYSTPLTFGQGTKVEIKRTVAAPSVFIFPPSDEQLKSGTASVVCLLNNFYPREAKVQWKVDNALQSGNSQESVTEQDSKDSTYSLSSTLTLSKADYEKHKVYACEVTHQGLSSPVTKSFNRGEC | EC50 (read off the curve) (mouse B7-H4-his [13]): ~0.3 nM; EC50 (read off the curve) (mouse B7-H4-Fc [15]): ~0.2 nM; EC50 (read off the curve) [16]: ~2 nM; EC50 (read off the curve) [19]: ~2 nM
0.18 nM | 0.647 nM | – | ~0.2 nM | – | – | ~0.4 nM | 0.761 nM | ~0.3 nM | ~0.2 nM | ~0.3 nM | ~0.4 nM | (+) Ab1/IL15 (other, Antibody-cytokine fusion: heterodimeric IgG1, HC1 with S354C/T366W, HC2 with Y349C/T366S/L368A/Y407V and C-terminal IL-15Ralpha sushi domain-linker-IL-15 N65S; also called (+) Ab/IL15; (+)Abl/IL15) heavy 1: QLQLQESGPGLVKPSETLSLTCTVSGGSIKSGSYYWGWIRQPPGKGLEWIGNIYYSGSTYYNPSLRSRVTISVDTSKNQFSLKLSSVTAADTAVYYCAREGSYPNQFDPWGQGTLVTVSS[letters of human IgG1 constant region with changes not shown] heavy 2: QLQLQESGPGLVKPSETLSLTCTVSGGSIKSGSYYWGWIRQPPGKGLEWIGNIYYSGSTYYNPSLRSRVTISVDTSKNQFSLKLSSVTAADTAVYYCAREGSYPNQFDPWGQGTLVTVSSASTKGPSVFPLAPSSKSTSGGTAALGCLVKDYFPEPVTVSWNSGALTSGVHTFPAVLQSSGLYSLSSVVTVPSSSLGTQTYICNVNHKPSNTKVDKKV[letters of human IgG1 Fc with changes not shown]CPPPMSVEHADIWVKSYSLYSRERYICNSGFKRKAGTSSLTECVLNKATNVAHWTTPSLKCIRDPALVHQRPAPPSGGSGGGGSGGGSGGGGSLQ[letters of about 120 residues not shown] light: EIVMTQSPATLSVSPGERATLSCRASQSVSSNLAWYQQKPGQAPRLLIYGASTRATGIPARFSGSGSGTEFTLTISSLQSEDFAVYYCQQYHSFPFTFGGGTKVEIKRTVAAPSVFIFPPSDEQLKSGTASVVCLLNNFYPREAKVQWKVDNALQSGNSQESVTEQDSKDSTYSLSSTLTLSKADYEKHKVYACEVTHQGLSSPVTKSFNRGEC | EC50 (read off the curve) (mouse B7-H4-his [4]): ~0.4 nM; EC50 (read off the curve) (mouse B7-H4-Fc [9]): ~0.2 nM
